Assay results taken from article PMC4336329 (PLoS ONE, 2015).
The whole screen tested about 310,000 compounds, of which about 14,000 (4.5%) showed an effect of 50% or more. The effect is printed as a negative number. Some of the results follow. Where a SMILES comes first, the peptide text is derived from it. The star is where a group is joined. Cbz = O=C(OCc1ccccc1)*

target: human ether-à-go-go-related gene (hERG) potassium channel (human, UniProt Q12809); test: primary screen, population patch clamp on CHO cells stably expressing hERG
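Note: peak tail current of the secondary pulse compared with the same well before compound.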

Sequence of human ether-à-go-go-related gene (hERG) potassium channel (Q12809 whole entry, looked up): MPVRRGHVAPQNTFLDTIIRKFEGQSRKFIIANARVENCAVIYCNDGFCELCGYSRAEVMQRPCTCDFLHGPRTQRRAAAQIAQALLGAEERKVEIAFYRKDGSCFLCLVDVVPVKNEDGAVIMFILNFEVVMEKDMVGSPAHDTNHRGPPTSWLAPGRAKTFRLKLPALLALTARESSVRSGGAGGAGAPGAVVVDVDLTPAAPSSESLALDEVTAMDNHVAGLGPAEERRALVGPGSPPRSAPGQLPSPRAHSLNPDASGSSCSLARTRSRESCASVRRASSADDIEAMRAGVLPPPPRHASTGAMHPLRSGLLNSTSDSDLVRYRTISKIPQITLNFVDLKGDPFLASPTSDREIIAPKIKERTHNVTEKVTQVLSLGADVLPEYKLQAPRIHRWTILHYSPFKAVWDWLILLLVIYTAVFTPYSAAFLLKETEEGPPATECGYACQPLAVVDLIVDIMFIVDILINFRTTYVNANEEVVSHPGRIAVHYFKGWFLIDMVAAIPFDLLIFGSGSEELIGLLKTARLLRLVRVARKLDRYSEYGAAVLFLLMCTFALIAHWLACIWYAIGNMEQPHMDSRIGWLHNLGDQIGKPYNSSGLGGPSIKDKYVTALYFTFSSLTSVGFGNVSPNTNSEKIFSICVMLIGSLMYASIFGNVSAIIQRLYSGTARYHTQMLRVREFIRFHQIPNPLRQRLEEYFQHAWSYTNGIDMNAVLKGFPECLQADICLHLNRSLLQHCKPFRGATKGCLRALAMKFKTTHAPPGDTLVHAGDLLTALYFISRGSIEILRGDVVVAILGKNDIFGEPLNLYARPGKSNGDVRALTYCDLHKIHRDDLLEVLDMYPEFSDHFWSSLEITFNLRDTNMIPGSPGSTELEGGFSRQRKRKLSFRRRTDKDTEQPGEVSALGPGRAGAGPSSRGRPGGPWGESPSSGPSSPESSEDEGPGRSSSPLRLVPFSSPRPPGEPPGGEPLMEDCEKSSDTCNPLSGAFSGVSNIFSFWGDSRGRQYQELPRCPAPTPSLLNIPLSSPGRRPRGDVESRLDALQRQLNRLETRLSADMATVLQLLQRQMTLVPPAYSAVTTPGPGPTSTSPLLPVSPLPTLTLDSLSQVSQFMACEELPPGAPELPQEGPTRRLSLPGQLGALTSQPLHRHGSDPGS

Structure (SMILES)	hERG current change (%, negative = inhibition) at 10uM [%]
COC(=O)c1ccc(CN2CCC(CO)(Cc3cccc(OC)c3)CC2)cc1	-66.1
CC(C)(C)OC(=O)N1CCC(C(=O)N[C@H](C(=O)O)c2ccccc2)(c2ccccc2)CC1	8.49
Cc1cc(C)n(C2CC(=O)N(c3cccc(Cl)c3)C2=O)n1 (centres unmarked)	-1.18
COc1ccc(NC(=O)COC(=O)/C=C/c2ccc(OC)c(S(=O)(=O)N3CCOCC3)c2)cc1	-25.8
COc1ccc(OC)c(NC(=O)c2csc(Cl)c2OC)c1	5.4
Cc1ccc(NC(=O)C2CCC(CNC(=O)[C@@H]3Cc4ccccc4CN3)CC2)cc1 (some centres unmarked)	-25.8
C/C(=N\O)c1ccc2[nH]ccc2c1	4.89
CCCOC(=O)CSc1nc(N2CCOCC2)c2c(c1C#N)CC(C)(C)OC2	-40.5
CCc1ccc(C2CC(=O)N(c3ccc(F)cc3)C3=C2C(=O)OC3)cc1 (centres unmarked)	-27
Cc1ccc(C)c(-c2cc(C(=O)NC3CC3)c3ccccc3n2)c1	-61.1
COc1ccc(C2=NN(C(=O)CCC(=O)O)C(c3ccccc3OC)C2)cc1 (centres unmarked)	10.6
OC(COC(c1ccccc1)c1ccccc1)CN1CCN(c2ccccn2)CC1 (centres unmarked)	-74.7
COC(=O)C1=C(c2ccccc2)C[C@@H]2CC[C@H]1N2C(=O)NCC1CC1	1.45
CC(C)N1C(=S)SC(C)(C)C1n1oc(=O)n(-c2ccc(Cl)c(Cl)c2)c1=O (centres unmarked)	-6.25
CC(Sc1nnc(C(F)(F)F)n1C)C(=O)NC(N)=O (centres unmarked)	5.23
COc1ccc(C(=O)CCC(=O)Nc2ccc(N3CCCCC3)cc2)cc1OC	9.35
OCC[C@@H]1C[C@H](O)[C@@H](O)[C@]2(CCc3ccccc3O2)O1	27.4
CCC(O)C1CCN(C(=O)c2cc(COc3ccc(F)cc3F)on2)CC1 (centres unmarked)	1.82
S=C(NCc1ccccc1)NCc1cccc(CNC(=S)NCc2ccccc2)c1	21.7
CC(C)C(NC(=O)OCc1ccccc1)C(=O)NC(Cc1ccc(O)cc1)C(=O)O (stereo not drawn) (Cbz-Val-Tyr-OH; configuration not given here)	13.6
Cn1cccc1C(=O)NC(=O)COC(=O)c1ccccc1O	-6.93
Cc1ccc(COc2ccc(S(=O)(=O)N3CCCC3)cc2C(N)=O)cc1	18.6
CNC(=O)/C(C#N)=C/c1c(N(Cc2ccccc2)Cc2ccccc2)nc2c(C)cccn2c1=O	1.97
O=C(N/N=C/c1ccc[nH]1)c1cccc(Br)c1	-13.6
Cc1ccccc1S(=O)(=O)Cc1ccc(C(=O)N2CCN(c3cccc(C)c3C)CC2)o1	-15.1
Cn1c(=O)c2ncn(CC(=O)Nc3nc(-c4ccc(Cl)cc4)cs3)c2n(C)c1=O	12.1
CC(C)C(=O)NC(=S)Nc1sc2c(c1C(N)=O)CCCC2	13.5

Structure (SMILES)	hERG current change (%, negative = inhibition) at 10uM [%]
COC(=O)C1=C(C)N(Cc2ccccc2)C(=NCc2cc(OC)c(OC)c(OC)c2)N[C@H]1c1cccc(F)c1	-23
C=CCn1c(COc2cccc(C)c2)nnc1SCC(=O)c1c[nH]c2c(CC)cccc12	16.5
O=C(OCC(=O)c1ccc[nH]1)c1ccc(Cl)nc1	-5.61
Cc1ccc(-n2c(C)cc(C(=O)OCC(=O)N(CC(C)C)C3CCS(=O)(=O)C3)c2C)cc1 (centres unmarked)	5.94
CCN(c1ccccc1)S(=O)(=O)c1ccc(OC)c(NC(=O)CCc2nc3ccccc3c(=O)[nH]2)c1	-51.2
CCN(CC)C(=O)CN(Cc1ccccc1)S(=O)(=O)c1ccc(F)cc1	-0.66
Clc1ccc(-c2csc3ncnc(N4CCc5ccccc5C4)c23)cc1	-3.52
C/C(CC(=O)Nc1c(C)cc(C)cc1C)=N\NC(=O)Cc1ccccc1	-1.97
CCCCOc1ccc(C(=O)NCC2(c3ccc(OC)cc3)CCOCC2)cc1	-42.3
CC1(C)CN=C(Nc2ccc(F)c(F)c2)S1	10.3
N=Cc1c(O)n(-c2ccc(C34CC5CC(CC(C5)C3)C4)cc2)c(=O)[nH]c1=O	1.23
CS(=O)(=O)N(CC(=O)NC1CC2CCC1C2)c1cccc(C(F)(F)F)c1 (centres unmarked)	2.48
Cc1cc(N(C)C)c(C#N)c(=O)[nH]1	14.1
CCOc1ccc(OCC)c(NC(=O)CSc2nc3cccnc3n2C)c1	-23
O=C(O)C(Cc1ccccc1)N1C(=O)/C(=C/c2cccnc2)SC1=S (centres unmarked)	14
COc1ccc(NC(=O)c2cc3c(s2)CCC(C)C3)cc1S(=O)(=O)N1CCOCC1 (centres unmarked)	-19.1
CS(=O)(=O)Nc1cccc(-c2cn3c(n2)SCC3)c1	23.6
Cc1cccc(N2CCN(C(=O)Cn3ccc4ccccc4c3=O)CC2)c1C	-23.1
O=C(Cc1ncc(C(F)(F)F)cc1Cl)NC1CC1	8.6
Cn1c(-c2csc(-c3ccccc3)n2)n[nH]c1=S	25.6
CC(NC(=O)c1ccco1)C(=O)NC(C)c1cc(F)c(Cl)cc1Cl (centres unmarked)	22.5
CCOC(=O)N1CCN(C(=O)CCCn2nnnc2CN2CCC(C)CC2)CC1	13
O=C(Nc1nnc(C2CC2)s1)c1cc(-c2ccccc2)nn1-c1ccccc1	2.63
CCOC(=O)c1cn(-c2c(Cl)cccc2Cl)c2cc(Cl)c([N+](=O)[O-])cc2c1=O	-4.21
COc1cc(C2/C(=C(\O)c3ccc4c(c3)CC(C)O4)C(=O)C(=O)N2c2nnc(C)s2)cc(OC)c1OC (centres unmarked)	9.14
COC(=O)C1CCN(C(=O)/C(C)=C\c2ccccc2)CC1	2.91
